In US12414961B2, “Substituted nucleosides and nucleotides for treating viral infections” (priority 2013, dated 2025) one finds EC50 data, which are given here for one compound.

What all share (assay type): cell-based
Conditions in all cases: Dengue virus; Cell Line Huh-7

One test deals with Dengue Type 4. In words: Dengue Type 4 antiviral assay, Huh-7.
The next test has as its system Dengue Type 3. In words: Dengue Type 3 antiviral assay, Huh-7.
The test system of a further test is Dengue Type 1. As to the kind of experiment: Dengue Type 1 antiviral assay, Huh-7.

One may read the EC50 as the concentration that produces a half-maximal response. Read a high EC50 as a less potent agent. Take `CC(C)OC(=O)[C@H](C)N[P@](=O)(OC[C@H]1O[C@@H](n2ccc(=O)[nH]c2=S)C(C)(O)[C@H]1O)Oc1ccccc1` (stereo partly drawn) [drawing 393]: the EC50 with Dengue Type 4 amounted to 14.2 µM; in the test with Dengue Type 3 it was 7.28 µM; in the test with Dengue Type 1 it was 1.76 µM.
